Measured values published in the supplement of paper PMC4967469.
A lower IC50 marks a more sensitive line; a fit beyond the top or the lowest dose is shown as a bound at that dose. AUC is the area under the same curve over the 256-fold range up to the top dose, as a fraction; the more sensitive the line, the further below 1. The top dose, if marked as inferred, was derived from the fitted curves, not read from the paper. For some of these results: Drugs with an entry number were screened twice under separate entries, and the two screens often disagree.

Assays:
Assay in all cases: Viability of human cancer cell lines after 72 h of drug (GDSC screen)
[1] = compound: NS(=O)(=O)OC[C@@H]1C[C@@H](n2ccc3c(N[C@H]4CCc5ccccc54)ncnc32)C[C@@H]1O [MLN4924]; details: top dose 1 µM; top dose inferred
Experimental: (§1)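 Human cancer cell lines in 384-well plates, medium with 10% serum, drug for 72 h over a 256-fold dose range (nine 2-fold or five 4-fold steps up to the top dose). Adherent lines were fixed and stained with the nucleic acid dye Syto60, suspension lines read with resazurin; signal relative to control wells, capped at 0 and 100%. One two-parameter sigmoid per drug and line, fitted in a mixed model over all curves with the slope shared within a line.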

[2] = compound: Cn1ncnc1[C@H]1c2n[nH]c(=O)c3cc(F)cc(c23)N[C@@H]1c1ccc(F)cc1 [BMN-673]; details: top dose 10 µM; top dose inferred
Experimental: as §1

[3] = compound: Cc1cc([C@@H](C)Nc2ccccc2C(=O)O)c2nc(N3CCOCC3)cc(=O)n2c1 [AZD6482]
Experimental: as §1

[4] = top dose 5 µM, screen: GDSC drug entry 1066, top dose inferred
[5] = top dose 5.12 µM, screen: GDSC drug entry 156

Cell Line	AUC [1]	IC50 [1] [µM]	AUC [2]	IC50 [2] [µM]	AUC [3, 4]	IC50 [3, 4] [µM]	AUC [3, 5]	IC50 [3, 5] [µM]
MRK-nu-1 (breast, suspension)	0.989	> 1	0.989	> 10	0.985	> 5	0.976	> 5.12
MS751 (cervix, adherent)	0.658	0.165	0.776	3.68	0.977	> 5	0.987	> 5.12
MS-1 (small cell lung carcinoma, suspension)	0.971	> 1	0.954	> 10	0.979	> 5	0.96	> 5.12
MZ7-mel (melanoma, adherent)	0.951	> 1	0.914	> 10	0.971	> 5	0.942	> 5.12
Mewo (melanoma, adherent)	0.906	> 1	0.902	> 10	0.803	3.06	0.958	> 5.12
NB12 (neuroblastoma, adherent)	0.961	> 1	0.955	> 10	0.696	1.36	0.892	> 5.12
NCI-H23 (lung adenocarcinoma, adherent)	0.753	0.33	0.663	1.77	0.973	> 5	0.988	> 5.12
NCI-H69 (small cell lung carcinoma, suspension)	0.872	> 1	0.909	> 10	0.958	> 5	0.951	> 5.12
NCI-H146 (small cell lung carcinoma, suspension)	0.865	0.598	0.989	> 10	0.985	> 5	–	–
NCI-H187 (small cell lung carcinoma, suspension)	0.978	> 1	0.977	> 10	0.979	> 5	0.982	> 5.12
NCI-H209 (small cell lung carcinoma, suspension)	0.735	0.309	0.226	0.0931	0.959	> 5	0.963	> 5.12
NCI-H211 (small cell lung carcinoma, adherent)	0.968	> 1	0.871	8.97	0.986	> 5	0.959	> 5.12
NCI-H322M (lung adenocarcinoma, suspension)	0.98	> 1	0.985	> 10	0.983	> 5	0.948	> 5.12
NCI-H358 (lung adenocarcinoma, adherent)	0.949	> 1	0.959	> 10	0.972	> 5	0.845	4.35
NCI-H520 (lung squamous cell carcinoma, adherent)	0.972	> 1	0.976	> 10	0.836	3.46	0.805	2.68
NCI-H522 (lung adenocarcinoma, adherent)	0.969	> 1	0.95	> 10	0.885	> 5	0.863	> 5.12
NCI-H526 (small cell lung carcinoma, suspension)	0.89	> 1	0.91	> 10	0.967	> 5	0.939	> 5.12
NCI-H596 (lung adenocarcinoma, adherent)	0.979	> 1	0.941	> 10	0.951	> 5	0.969	> 5.12
NCI-H647 (non-small cell lung carcinoma, adherent)	0.983	> 1	0.983	> 10	0.81	2.79	0.87	> 5.12

Cell Line	AUC [1]	IC50 [1] [µM]	AUC [2]	IC50 [2] [µM]	AUC [3, 4]	IC50 [3, 4] [µM]	AUC [3, 5]	IC50 [3, 5] [µM]
NCI-H661 (large cell lung carcinoma, adherent)	0.908	> 1	0.854	> 10	0.813	3.44	0.928	> 5.12
NCI-H727 (lung carcinoid, adherent)	0.952	> 1	0.973	> 10	0.967	> 5	0.903	> 5.12
NCI-H835 (lung carcinoid, suspension)	0.99	> 1	0.983	> 10	0.973	> 5	–	–
NCI-H838 (lung adenocarcinoma, adherent)	0.484	0.0563	0.867	9.68	0.893	> 5	0.967	> 5.12
NCI-H1048 (small cell lung carcinoma, adherent)	0.961	> 1	0.325	0.215	0.685	0.966	0.72	1.25
NCI-H1092 (small cell lung carcinoma, suspension)	0.95	> 1	0.951	> 10	0.984	> 5	0.99	> 5.12
NCI-H1105 (small cell lung carcinoma, suspension)	0.973	> 1	0.749	2.75	0.984	> 5	–	–
NCI-H1299 (large cell lung carcinoma, adherent)	0.864	> 1	0.949	> 10	0.95	> 5	0.762	2.23
NCI-H1341 (small cell lung carcinoma, suspension)	0.876	0.744	0.78	3.5	0.87	3.52	–	–
NCI-H1435 (lung adenocarcinoma, semi-adherent)	0.98	> 1	0.992	> 10	0.931	> 5	0.896	5.08
NCI-H1573 (lung adenocarcinoma, adherent)	0.924	> 1	0.966	> 10	0.978	> 5	0.991	> 5.12
NCI-H1581 (large cell lung carcinoma, semi-adherent)	0.974	> 1	0.919	> 10	0.959	> 5	0.99	> 5.12
NCI-H1666 (lung adenocarcinoma, semi-adherent)	0.98	> 1	0.903	> 10	0.944	> 5	0.98	> 5.12
NCI-H1693 (lung adenocarcinoma, adherent)	0.932	> 1	0.87	> 10	0.859	> 5	0.881	> 5.12
NCI-H1703 (lung adenocarcinoma, adherent)	0.589	0.116	0.942	> 10	0.961	> 5	0.961	> 5.12
NCI-H1793 (lung adenocarcinoma, adherent)	0.972	> 1	0.929	> 10	0.787	3.21	0.963	> 5.12
NCI-H1836 (small cell lung carcinoma, suspension)	0.985	> 1	0.986	> 10	0.984	> 5	0.979	> 5.12
NCI-H1838 (lung adenocarcinoma, adherent)	0.938	> 1	0.967	> 10	–	–	0.983	> 5.12
NCI-H1869 (lung squamous cell carcinoma, adherent)	0.967	> 1	0.961	> 10	0.95	> 5	0.898	> 5.12

Cell Line	AUC [1]	IC50 [1] [µM]	AUC [2]	IC50 [2] [µM]	AUC [3, 4]	IC50 [3, 4] [µM]	AUC [3, 5]	IC50 [3, 5] [µM]
NCI-H2009 (lung adenocarcinoma, adherent)	0.871	> 1	0.869	> 10	0.952	> 5	0.805	2.75
NCI-H2023 (lung adenocarcinoma, adherent)	0.773	0.487	0.484	0.561	0.933	> 5	0.921	> 5.12
NCI-H2029 (small cell lung carcinoma, adherent)	0.953	> 1	0.992	> 10	0.986	> 5	0.992	> 5.12
NCI-H2030 (lung adenocarcinoma, adherent)	0.676	0.209	0.759	3.96	0.73	1.56	0.776	2.33
NCI-H2081 (small cell lung carcinoma, suspension)	0.94	> 1	0.988	> 10	0.976	> 5	0.973	> 5.12
NCI-H2085 (lung adenocarcinoma, adherent)	0.938	> 1	0.945	> 10	0.864	> 5	0.617	0.69
NCI-H2135 (non-small cell lung carcinoma, adherent)	0.977	> 1	0.99	> 10	0.99	> 5	0.971	> 5.12
NCI-H2170 (lung squamous cell carcinoma, adherent)	0.875	> 1	0.767	3.88	0.967	> 5	0.945	> 5.12
NCI-H2172 (non-small cell lung carcinoma, adherent)	0.967	> 1	0.952	> 10	0.947	> 5	0.945	> 5.12
NCI-H2227 (small cell lung carcinoma, semi-adherent)	0.854	0.959	0.908	> 10	0.986	> 5	0.981	> 5.12
NCI-H2342 (lung adenocarcinoma, adherent)	0.975	> 1	0.834	7.51	–	–	0.643	0.834
NCI-H2405 (lung adenocarcinoma, adherent)	0.951	> 1	0.773	4.3	0.9	> 5	0.955	> 5.12
NCI-H2444 (non-small cell lung carcinoma, adherent)	0.984	> 1	0.98	> 10	0.975	> 5	0.946	> 5.12
NCI-H2452 (mesothelioma, adherent)	0.907	> 1	0.8	5.93	0.755	2	0.909	> 5.12
NCI-H3122 (lung adenocarcinoma, adherent)	0.769	0.389	0.686	2.11	0.943	> 5	0.854	4.24
NCI-SNU-1 (stomach, suspension)	0.943	> 1	0.972	> 10	0.981	> 5	0.952	> 5.12
NKM-1 (acute myeloid leukaemia, suspension)	0.708	0.246	0.51	0.666	0.87	4.91	0.698	1.17
NU-DUL-1 (B-cell lymphoma, suspension)	0.895	0.794	0.927	> 10	–	–	0.627	0.665
NUGC-3 (stomach, adherent)	0.738	0.329	0.445	0.435	0.934	> 5	0.957	> 5.12
